Assays:
Vps26A-nLuc = Vps26A-nLuc (UniProt O75436); test: FRET or BRET
RlucII-CLN3 = target: T1, RlucII-CLN3 (UniProt Q13286 1-438); test: FRET or BRET
T1 sequence (looked up): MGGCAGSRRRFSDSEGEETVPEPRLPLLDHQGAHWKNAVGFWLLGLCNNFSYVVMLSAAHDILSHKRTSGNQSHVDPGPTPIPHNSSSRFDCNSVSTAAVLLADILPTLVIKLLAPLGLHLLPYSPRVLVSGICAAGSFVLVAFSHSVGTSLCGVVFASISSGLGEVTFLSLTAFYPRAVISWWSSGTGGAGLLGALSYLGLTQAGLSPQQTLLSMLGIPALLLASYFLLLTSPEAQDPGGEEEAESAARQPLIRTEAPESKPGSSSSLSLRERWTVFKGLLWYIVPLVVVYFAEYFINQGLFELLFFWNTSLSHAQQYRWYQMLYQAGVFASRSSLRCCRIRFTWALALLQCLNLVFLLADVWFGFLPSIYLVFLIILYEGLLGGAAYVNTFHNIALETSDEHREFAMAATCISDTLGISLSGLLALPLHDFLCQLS

Chain of Vps26A-nLuc (O75436 whole entry): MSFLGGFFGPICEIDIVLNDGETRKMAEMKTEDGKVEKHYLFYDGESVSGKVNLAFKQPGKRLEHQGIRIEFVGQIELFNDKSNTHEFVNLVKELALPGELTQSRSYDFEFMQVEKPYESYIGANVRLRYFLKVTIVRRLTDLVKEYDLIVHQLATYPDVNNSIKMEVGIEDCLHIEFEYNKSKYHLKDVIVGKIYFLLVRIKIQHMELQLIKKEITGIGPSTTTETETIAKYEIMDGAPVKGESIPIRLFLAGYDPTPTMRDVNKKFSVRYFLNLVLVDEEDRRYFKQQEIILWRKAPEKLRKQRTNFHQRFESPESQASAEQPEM

fold increase of BRET50 in CLN5KO cells against wild-type HeLa cells (Vps26A-nLuc): 4 fold | fold increase of BRET50 in CLN5KO cells against wild-type HeLa cells (RlucII-CLN3): 6 fold
B1: sortilin-YFP (receptor)
chain: [letters of about 700 residues left out]SVPIILAIVGLMLVTVVAGVLIVKKYVCGGRFLVHRYSVLQQHAEANGVDGVDALDTASHTNKSGYHDDSDEDLLE
